Over roughly 33,000 sequences, “E-score (-0.5 to 0.5)” has its median near -0.012; the highest 2% begin near 0.29. The list shows a part of the results.
What follows are sequences tested against T1, Ybr033w (UniProt P38073) (assay: PBM E-score (8-mer binding enrichment) (E-score (-0.5 to 0.5)); higher = stronger / more preferred TF binding; most listed sequences are background and not binding sites). Conditions: protein concentration: 200 nM; construct: GST-full length.
T1 sequence: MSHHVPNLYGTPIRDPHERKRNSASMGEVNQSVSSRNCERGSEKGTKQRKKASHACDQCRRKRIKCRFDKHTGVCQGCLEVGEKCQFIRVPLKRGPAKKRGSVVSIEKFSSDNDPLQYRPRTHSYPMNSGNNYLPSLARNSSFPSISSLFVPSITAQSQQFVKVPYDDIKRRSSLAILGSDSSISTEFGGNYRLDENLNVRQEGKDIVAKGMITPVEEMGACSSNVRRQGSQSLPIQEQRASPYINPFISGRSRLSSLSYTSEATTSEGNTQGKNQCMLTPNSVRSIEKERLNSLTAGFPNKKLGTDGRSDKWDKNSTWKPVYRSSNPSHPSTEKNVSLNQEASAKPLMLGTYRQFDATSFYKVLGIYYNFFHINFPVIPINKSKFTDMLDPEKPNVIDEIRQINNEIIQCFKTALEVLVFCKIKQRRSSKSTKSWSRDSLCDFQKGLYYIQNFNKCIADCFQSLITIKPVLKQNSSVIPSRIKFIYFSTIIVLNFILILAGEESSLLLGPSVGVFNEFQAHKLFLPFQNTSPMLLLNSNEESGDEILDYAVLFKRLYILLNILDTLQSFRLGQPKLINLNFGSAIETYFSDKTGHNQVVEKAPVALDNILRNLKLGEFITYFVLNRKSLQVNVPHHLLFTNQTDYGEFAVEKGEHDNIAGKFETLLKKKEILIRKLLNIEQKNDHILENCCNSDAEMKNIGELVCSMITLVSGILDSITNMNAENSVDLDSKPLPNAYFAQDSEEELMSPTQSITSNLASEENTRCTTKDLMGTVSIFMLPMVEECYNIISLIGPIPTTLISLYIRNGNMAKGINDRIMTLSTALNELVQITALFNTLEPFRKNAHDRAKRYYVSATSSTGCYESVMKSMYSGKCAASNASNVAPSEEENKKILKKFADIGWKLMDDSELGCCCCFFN
In short: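 GST-tagged yeast TFs (full-length or DNA-binding domain) were made by PURExpress in vitro transcription/translation and applied at about 100-200 nM to universal all-10-mer Agilent arrays. The arrays were made double-stranded by primer extension, on fresh or once-stripped slides. Bound protein was detected with fluorescent anti-GST, and scans were normalised with masliner. Each ungapped eight-base word, pooled with its reverse complement, received an E-score (modified Wilcoxon-Mann-Whitney statistic) from the Universal PBM Analysis Suite.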

Sequence | PBM E-score
GGCACTTA | -0.293
AAATAGGG | -0.0125
AGTCTTAG | -0.163
CAGTTAGG | 0.031
CTCGGTGC | -0.157
GAAAAACC | 0.386
AAATTTAC | 0.263
CGCACTGC | -0.129
CGTTTAAG | 0.0639
AAGCGGGG | -0.264
ACGCAGGG | -0.091
AACCATCG | 0.149
AGCTCAGC | -0.133
GTGATAAC | -0.00385
ACAAATCA | 0.176
AGAGATGG | 0.0736
CCCCAGGG | -0.29
TAGAGAGA | -0.0355
GGATCACA | -0.0516
GCGTCGCC | -0.0716
CAATTGCC | 0.0461
CACCGCCA | -0.0315
CTCCAACC | 0.0773
ATGCCCAC | -0.0596
CGGTTCTA | 0.0953

Sequence | PBM E-score
CTCGAAAA | 0.00089
CAAAAACG | 0.173
CAACCAAG | 0.109
CGGGGGCA | -0.384
GAACGATA | -0.0645
ACATGAGC | -0.125
AAGCCCGG | -0.0996
AGATACCC | -0.0709
CGCTCATA | -0.0772
AGTAACAG | 0.242
GACGAATC | 0.159
AAACCCTA | -0.0238
CAGACCCC | -0.316
ACCTCTGG | -0.147
ATCATGCG | -0.0149
CGGAGCAC | -0.13
CGCAAGGC | -0.0931
ATCCTACA | 0.0217
CGCGGGTC | -0.0494
ATTCAAAG | 0.133
ACGGGGAG | -0.179
CGTAACAG | 0.0429
CCTTAGTA | -0.0356
CAACGACA | 0.00165
CAGACCTA | 0.0903

Sequence | PBM E-score
AACTCCGC | -0.219
AAATTCAC | 0.241
AGTTCGAG | 0.0338
CACCGAAG | 0.0209
ATGATCCC | 0.244
TGGTTGAA | 0.0153
GGCTAAAC | -0.15
GATAAATA | 0.4
GGATTATA | 0.244
GGGCGCAA | -0.163
AACGTCAC | -0.00251
TGTCATAA | 0.08
GCGACTCC | -0.197
ATTCCTAA | 0.201
CTCTGCAA | 0.0809
CGACGTTC | -0.245
AAACGAAG | 0.159
GATCAAAA | 0.296
GTGCGCCA | -0.143
TGGCTAAA | -0.0621
GTAAAAAA | 0.0961
AACTCTTG | 0.059
AACACGGC | 0.0031
AGTCTGGG | -0.178
ATAAGGCC | -0.143

Sequence | PBM E-score
AGACAGAT | -0.0372
AGATGGGA | -0.12
AGTCGATA | 0.0843
AGCAATGC | 0.0566
ACCAGTCT | -0.0569
CACTAATG | 0.0973
ACTTGAAC | 0.137
ACTCCCCC | -0.323
ACGTCTGG | -0.129
AAGTATAC | 0.197
GTGACGCA | -0.255
CGTCTCTC | -0.0119
ACCGGTTG | -0.125
ACTCTTCA | 0.0741
CATAATGG | -0.116
GTCGAATA | 0.114
CCGTTACC | -0.103
CACAGCGA | 0.179
GATATGAA | 0.261
AGACGGAG | -0.0783
ATACGCTA | -0.0114
ATTATGTA | 0.312
ATCTTAGA | 0.131
ACGAGCGA | 0.0677
GACTACAA | -0.0544

Sequence | PBM E-score
GAATGGCA | 0.00237
CAGGAGGA | -0.183
ATCTCGAC | 0.0863
CGCAGATA | 0.0345
GTATCTAA | 0.253
GGCAACAC | -0.0993
ACAAAAAC | 0.243
GAACATAC | 0.276
TAACGAAA | 0.257
AGGCAGTA | -0.0626
TCCGTACA | 0.0794
AGTCGTTA | 0.0146
CGTCCCCC | -0.402
ACGGTGTA | -0.0998
ATAATCGG | 0.162
GCGGAAAC | -0.191
ATCTGATG | -0.0196
CCTTGTTA | 0.127
ATACCATC | 0.136
ACTCCTCG | 0.0923
GAGCGATA | -0.0461
ACAGTGCG | -0.157
GCGCACAA | -0.0152
AAGAATAT | 0.149
CTAGTTGC | -0.117

Sequence | PBM E-score
CGACCTTC | -0.00154
AGGCCTTC | -0.0617
ACCTGAGT | 0.0248
AGATACAG | 0.22
ACTGGCAG | -0.116
GATCTCGA | -0.0286
GCATGTGA | -0.0841
GTCGCATA | 0.214
ATGGGTCG | -0.217
GACATGCA | -0.0594
CGACAGCA | -0.108
ATCGGCCC | -0.227
CCTCACTA | -0.133
AAACAGAA | 0.253
TATTAGGA | 0.192
CTTCCAGA | 0.0173
AATTCCAA | 0.261
CGGCGTAA | 0.118
CTCATACA | 0.0922
GCTCCTAA | -0.159
AGGATCCC | -0.0813
GTCGGAAC | 0.117
GCTCAGAA | 0.00445
GCAACTGA | 0.0264
GGTCAAAC | 0.0635

Sequence | PBM E-score
CCCTCGCA | -0.206
GGGATAAA | 0.317
ACACGCAG | -0.0983
ACTTTAAG | 0.181
CCTTTTGC | -0.0725
GCATCCGC | -0.142
ACGCCTGC | -0.314
ACCTTACA | 0.0943
CCGCACGC | -0.19
ATAGTGCC | -0.0424
GGAGATAA | 0.128
CCCTTGTC | -0.24
CCTTTAAA | 0.0546
ACGTAAAA | 0.243
GCGACGAA | 0.0863
AAGCAATG | 0.172
TAAGGCTA | -0.134
AAGAGATT | 0.124
AACTGACG | -0.161
CCGTTCGC | -0.231
AAGCAACC | 0.0073
ACACCCTA | 0.161

From the supplement of paper PMC3334620
